# Experimental data from the supplement of paper PMC6609913.
# Where a name gives a salt, the structure may show the parent alone. ± gives the standard deviation of the averaged measurements. In all, about 1,300 compounds were measured (“normalised cell viability”: median about 1, lowest 2% from about 0.15 on). Some of the results follow.
# System: V-C8 + BRCA2 (BRCA2-proficient hamster cells)
# Assay: normalised cell viability (fraction of plate median); higher = more viable cells (less toxic)
# Conditions: 5 µM
# Method in brief: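 Library drugs, held as 10 mM stocks in DMSO, were diluted to 5 μM in 100 μl medium and added to 96-well plates of V-C8 hamster cells, either lacking BRCA2 or with BRCA2 restored, 24 h after seeding. Plates ran for 3 days (screen 1) or 6 days (screen 2), alongside solvent-only wells. Viability came from a resazurin readout, median-plate normalised, as the mean of triplicate wells.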
SMILES,normalised cell viability (treatment time: 3 days),normalised cell viability (treatment time: 6 days)
CN1[C@@H]2CC[C@H]1C[C@@H](OC(=O)C(CO)c1ccccc1)C2 (stereo partly specified) [Atropine sulfate monohydrate],0.925 ± 0.033,0.988 ± 0.053
CNC(C)(C)Cc1ccccc1 [Mephentermine hemisulfate],0.958 ± 0.013,0.937 ± 0.06
C[C@]12CCC(=O)C(O)=C1CC[C@@H]1[C@@H]2CC[C@]2(C)C(=O)CC[C@@H]12 [Formestane],1.033 ± 0.0053,1.03 ± 0.064
NCCCNCCSP(=O)(O)O [Amifostine],1.03 ± 0.045,0.999 ± 0.085
CC1OC(OC2/C=C/C=C/C=C/C=C/CC/C=C/C=C/[C@H](C)[C@@H](O)[C@@H](C)[C@H](C)OC(=O)CC(O)CC(O)CC(O)CCC(O)C(O)C[C@]3(O)CC(O)C(C(=O)O)C(C2)O3)C(O)C(N)C1O (stereo partly specified) [Nystatine],1.02 ± 0.064,0.954 ± 0.047
NCCC(O)C(=O)NC1CC(N)C(OC2OC(CN)C(O)[C@H](O)[C@@H]2N)[C@H](OC2O[C@H](CO)[C@@H](O)[C@@H]2O)[C@@H]1O (stereo partly specified) [Butirosin disulfate salt],0.979 ± 0.026,0.868 ± 0.3
O=c1[nH]c2ccccc2n1C1CCN(CCCC(c2ccc(F)cc2)c2ccc(F)cc2)CC1 [Pimozide],0.754 ± 0.051,0.765 ± 0.043
C#CCN(C)[C@H](C)Cc1ccccc1 [Selegiline hydrochloride],1.07 ± 0.062,1.06 ± 0.077
C[C@@H]1O[C@@H](O[C@@H]2C=C3CC[C@@H]4[C@H](CC[C@]5(C)[C@@H](c6ccc(=O)oc6)CC[C@]45O)[C@@]3(C)CC2)[C@H](O)[C@H](O)[C@H]1O [Proscillaridin A],0.978 ± 0.013,1.02 ± 0.11
C[C@]12CC[C@@H](O)C[C@H]1CC[C@@H]1[C@@H]2CC[C@]2(C)C(=O)CC[C@@H]12 [3-alpha-Hydroxy-5-beta-androstan-17-one],1.03 ± 0.037,1 ± 0.028
CN1[C@@H]2C[C@@H](OC(=O)[C@H](CO)c3ccccc3)C[C@H]1[C@@H]1O[C@@H]12 [Scopolamine hydrochloride],0.982 ± 0.13,0.993 ± 0.032
C#C[C@]1(O)CC[C@H]2[C@@H]3CCC4=CC(=O)CCC4=C3C=C[C@@]21CC [Gestrinone],1.14 ± 0.24,1.03 ± 0.039
N[C@@H]1C[C@H]1c1ccccc1 [Tranylcypromine hydrochloride],0.9796 ± 0.0062,0.946 ± 0.022
"NCC(CC(=O)O)c1ccc(Cl)cc1 (racemic) [Baclofen (R,S)]",0.897 ± 0.079,0.956 ± 0.083
CN[C@@H]1[C@@H](O)[C@@H](O[C@@H]2[C@@H](O)[C@H](O[C@H]3O[C@H](CN)CC[C@H]3N)[C@@H](N)C[C@H]2N)OC[C@]1(C)O.CN[C@@H]1[C@@H](O)[C@@H](O[C@@H]2[C@@H](O)[C@H](O[C@H]3O[C@H]([C@@H](C)N)CC[C@H]3N)[C@@H](N)C[C@H]2N)OC[C@]1(C)O.CN[C@@H]1[C@@H](O)[C@@H](O[C@@H]2[C@@H](O)[C@H](O[C@H]3O[C@H]([C@@H](C)NC)CC[C@H]3N)[C@@H](N)C[C@H]2N)OC[C@]1(C)O [Gentamicine sulfate],0.891 ± 0.023,0.944 ± 0.062
O=C1CC[C@@]2(O)[C@H]3Cc4ccc(O)c5c4[C@@]2(CCN3CC2CC2)[C@H]1O5 [Naltrexone hydrochloride dihydrate],1.19 ± 0.059,1.09 ± 0.065
"CN1CCC2(C)c3cc(O)ccc3N(C)C12 (single isomer, unassigned; (-)) [(-)-Eseroline fumarate salt]",0.694 ± 0.028,0.769 ± 0.015
CC(NC(C)(C)C)C(=O)c1cccc(Cl)c1 (stereo unspecified) [Bupropion hydrochloride],0.988 ± 0.031,0.988 ± 0.078
c1ccc2c(c1)Nc1ccccc1S2 [Phenothiazine],0.989 ± 0.017,1.07 ± 0.058
O=c1c2ccccc2[se]n1-c1ccccc1 [Ebselen],1.12 ± 0.036,1.05 ± 0.14
CC(=O)O[C@H]1C[C@@H]2CC[C@@H]3[C@H](CC[C@@]4(C)[C@H]3C[C@H]([N+]3(C)CCCCC3)[C@@H]4OC(C)=O)[C@@]2(C)C[C@@H]1[N+]1(C)CCCCC1 [Pancuronium bromide],1.02 ± 0.037,1.06 ± 0.063
C=CCN1CC[C@]23c4c5ccc(O)c4O[C@H]2C(=O)CC[C@@]3(O)[C@H]1C5 [Naloxone hydrochloride],1.06 ± 0.028,1.07 ± 0.066
COP(=O)(OC)C(O)C(Cl)(Cl)Cl (stereo unspecified) [Trichlorfon],1.01 ± 0.014,0.968 ± 0.025
C[C@]12C[C@H]3S[C@H]3C[C@@H]1CC[C@@H]1[C@@H]2CC[C@]2(C)[C@@H](O)CC[C@@H]12 [Epitiostanol],1.02 ± 0.019,1.05 ± 0.022

SMILES,normalised cell viability (treatment time: 3 days),normalised cell viability (treatment time: 6 days)
CCCC(C)C1(CC)C(=O)NC(=O)NC1=O (stereo unspecified) [Pentobarbital],0.905 ± 0.023,0.954 ± 0.028
C[C@]12CCC(=O)C=C1C=C[C@@H]1[C@@H]2CC[C@@]2(C)[C@H]1CC[C@@]2(O)CCC(=O)O [Canrenoic acid potassium salt],1.06 ± 0.059,1.06 ± 0.022
C(#CCN1CCCC1)CN1CCCC1 [Tremorine dihydrochloride],1.14 ± 0.045,1.09 ± 0.1
CC(C)c1cccc(C(C)C)c1O [Propofol],1.01 ± 0.042,1.07 ± 0.044
C[C@]12CC[C@H](O)C[C@H]1CC[C@@H]1[C@@H]2CC[C@]2(C)[C@@H](C3=CC(=O)OC3)CC[C@]12O [Digitoxigenin],1.06 ± 0.021,1.06 ± 0.018
Oc1ccc2c3c1O[C@H]1[C@@H](O)CC[C@@]4(O)[C@@H](C2)N(CC2CCC2)CC[C@]314 [Nalbuphine hydrochloride],1.19 ± 0.029,1.09 ± 0.052
CC(=O)O[C@H]1CC[C@@]2(C)C(=CC[C@@H]3[C@@H]2CC[C@]2(C)C(=O)CC[C@@H]32)C1 [Dehydroisoandosterone 3-acetate],1.02 ± 0.014,1 ± 0.12
O=C(NCNC(=O)NC1C(=O)NC(=O)N1CO)NC1C(=O)NC(=O)N1CO (stereo unspecified) [Imidurea],1.02 ± 0.062,1.05 ± 0.056
CN1C[C@H](CNC(=O)OCc2ccccc2)C[C@@H]2c3cccc4c3c(cn4C)C[C@H]21 [Metergoline],0.166 ± 0.008,0.213 ± 0.038
COc1cc2c(c(OC)c1OC)-c1ccc(OC)c(=O)cc1[C@@H](NC(C)=O)CC2 [Colchicine],0.158 ± 0.0081,0.16 ± 0.003
CC[N+]1(C)CCCC(OC(=O)C(O)(c2ccccc2)c2ccccc2)C1 (stereo unspecified) [Pipenzolate bromide],1.09 ± 0.049,1.06 ± 0.013
c1ccc2c(c1)OCC(C1=NCCN1)O2 (stereo unspecified) [Idazoxan hydrochloride],0.916 ± 0.026,0.966 ± 0.046
CCCCCC[C@H]1C(=O)O[C@H](C)[C@H](NC(=O)c2cccc(NC=O)c2O)C(=O)O[C@@H](C)[C@@H]1OC(=O)CC(C)C [Antimycin A],0.148 ± 0.012,0.124 ± 0.011
Cc1cc(C(C#N)c2ccc(Cl)cc2)c(Cl)cc1NC(=O)c1cc(I)cc(I)c1O (stereo unspecified) [Closantel],0.927 ± 0.065,0.823 ± 0.11
C[C@@H]1C[C@@H]([C@H](O)CC2CC(=O)NC(=O)C2)C(=O)[C@@H](C)C1 [Cycloheximide],0.146 ± 0.008,0.138 ± 0.016
CC[C@@H](CO)NC(=O)[C@@H]1C=C2c3cccc4[nH]cc(c34)C[C@H]2N(C)C1 [Methylergometrine maleate],1.05 ± 0.044,1.05 ± 0.047
O=c1[nH]oc2c1CCNC2 [THIP Hydrochloride],0.981 ± 0.024,1 ± 0.023
CC(N)C(O)c1ccccc1 (stereo unspecified) [Phenylpropanolamine hydrochloride],0.938 ± 0.032,1.1 ± 0.023
O=C(CCCN1CCC2(CC1)C(=O)NCN2c1ccccc1)c1ccc(F)cc1 [Spiperone],1.07 ± 0.04,0.997 ± 0.072
C=C1CC[C@@]2(O)[C@H]3Cc4ccc(O)c5c4[C@@]2(CCN3CC2CC2)[C@H]1O5 [Nalmefene hydrochloride],1 ± 0.043,1.07 ± 0.15
O=[N+]([O-])O[C@H]1CO[C@H]2[C@@H]1OC[C@H]2O[N+](=O)[O-] [Isosorbide dinitrate],0.863 ± 0.11,0.97 ± 0.053
NCC1(CC(=O)O)CCCCC1 [Gabapentin],0.964 ± 0.058,1.2 ± 0.018
CC(O)(CS(=O)(=O)c1ccc(F)cc1)C(=O)Nc1ccc(C#N)c(C(F)(F)F)c1 (stereo unspecified) [Bicalutamide],0.872 ± 0.096,1.01 ± 0.022
CCOC(=O)c1cncn1[C@H](C)c1ccccc1 [Etomidate],0.957 ± 0.053,1.03 ± 0.077
